{"source": "paper PMC9911399", "about": "“Two distinct binding modes provide the RNA-binding protein RbFox with extraordinary sequence specificity”", "binders": {"B1": {"name": "ACUGUAC (DNA:RNA)", "RNA": "GGGAGACCGGAAUUCAGAUUGUCCACUGUACUUAAAUCCCGUCGUAGCCACCA", "DNA 1": "CAATCTGAATTCCGGTCTCCC", "DNA 2": "TGGTGGCTACGACGGGATT"}, "B2": {"name": "CAGGUUG (DNA:RNA)", "RNA": "B1 RNA with A25C, C26A, U27G, A30U, C31G", "DNA 1": "CAATCTGAATTCCGGTCTCCC", "DNA 2": "TGGTGGCTACGACGGGATT"}, "B3": {"name": "GUGUCCA (DNA:RNA)", "RNA": "GGGAGACCGGAAUUCAGAUUGUCCGUGUCCAUUAAAUCCCGUCGUAGCCACCA", "DNA 1": "CAATCTGAATTCCGGTCTCCC", "DNA 2": "TGGTGGCTACGACGGGATT"}, "B4": {"name": "CGAAACC (DNA:RNA)", "RNA": "B1 RNA with A25C, C26G, U27A, G28A, U29A, A30C", "DNA 1": "CAATCTGAATTCCGGTCTCCC", "DNA 2": "TGGTGGCTACGACGGGATT"}, "B5": {"name": "UCACUCA (DNA:RNA)", "RNA": "B1 RNA with A25U, U27A, G28C, A30C, C31A", "DNA 1": "CAATCTGAATTCCGGTCTCCC", "DNA 2": "TGGTGGCTACGACGGGATT"}, "B6": {"name": "CACAACG (DNA:RNA)", "RNA": "B3 RNA with G25C, U26A, G27C, U28A, C29A, A31G", "DNA 1": "CAATCTGAATTCCGGTCTCCC", "DNA 2": "TGGTGGCTACGACGGGATT"}, "B7": {"name": "UGGUUAU (DNA:RNA)", "RNA": "B1 RNA with A25U, C26G, U27G, G28U, C31U", "DNA 1": "CAATCTGAATTCCGGTCTCCC", "DNA 2": "TGGTGGCTACGACGGGATT"}, "B8": {"name": "AAAAACA (DNA:RNA)", "RNA": "B3 RNA with G25A, U26A, G27A, U28A, C29A", "DNA 1": "CAATCTGAATTCCGGTCTCCC", "DNA 2": "TGGTGGCTACGACGGGATT"}, "B9": {"name": "CUCGGAC (DNA:RNA)", "RNA": "B1 RNA with A25C, C26U, U27C, U29G", "DNA 1": "CAATCTGAATTCCGGTCTCCC", "DNA 2": "TGGTGGCTACGACGGGATT"}, "B10": {"name": "CUGAACA (DNA:RNA)", "RNA": "B3 RNA with G25C, U28A, C29A", "DNA 1": "CAATCTGAATTCCGGTCTCCC", "DNA 2": "TGGTGGCTACGACGGGATT"}, "B11": {"name": "CGUCCAC (DNA:RNA)", "RNA": "B1 RNA with A25C, C26G, G28C, U29C", "DNA 1": "CAATCTGAATTCCGGTCTCCC", "DNA 2": "TGGTGGCTACGACGGGATT"}, "B12": {"name": "GGGAGAA (DNA:RNA)", "RNA": "B3 RNA with U26G, U28A, C29G, C30A", "DNA 1": "CAATCTGAATTCCGGTCTCCC", "DNA 2": "TGGTGGCTACGACGGGATT"}, "B13": {"name": "CAUGAAA (DNA:RNA)", "RNA": "B1 RNA with A25C, C26A, U29A, C31A", "DNA 1": "CAATCTGAATTCCGGTCTCCC", "DNA 2": "TGGTGGCTACGACGGGATT"}, "B14": {"name": "CUACUUG (DNA:RNA)", "RNA": "B1 RNA with A25C, C26U, U27A, G28C, A30U, C31G", "DNA 1": "CAATCTGAATTCCGGTCTCCC", "DNA 2": "TGGTGGCTACGACGGGATT"}, "B15": {"name": "UGAAGGG (DNA:RNA)", "RNA": "GGGAGACCGGAAUUCAGAUUGUCCUGAAGGGUUAAAUCCCGUCGUAGCCACCA", "DNA 1": "CAATCTGAATTCCGGTCTCCC", "DNA 2": "TGGTGGCTACGACGGGATT"}, "B16": {"name": "UUUAGUU (DNA:RNA)", "RNA": "B15 RNA with G26U, A27U, G30U, G31U", "DNA 1": "CAATCTGAATTCCGGTCTCCC", "DNA 2": "TGGTGGCTACGACGGGATT"}, "B17": {"name": "UAAUCGU (DNA:RNA)", "RNA": "B15 RNA with G26A, A28U, G29C, G31U", "DNA 1": "CAATCTGAATTCCGGTCTCCC", "DNA 2": "TGGTGGCTACGACGGGATT"}, "B18": {"name": "CCGGAGG (DNA:RNA)", "RNA": "B1 RNA with A25C, U27G, U29A, A30G, C31G", "DNA 1": "CAATCTGAATTCCGGTCTCCC", "DNA 2": "TGGTGGCTACGACGGGATT"}, "B19": {"name": "AAUCCCC (DNA:RNA)", "RNA": "B1 RNA with C26A, G28C, U29C, A30C", "DNA 1": "CAATCTGAATTCCGGTCTCCC", "DNA 2": "TGGTGGCTACGACGGGATT"}, "B20": {"name": "UGCAAGG (DNA:RNA)", "RNA": "B15 RNA with A27C, G29A", "DNA 1": "CAATCTGAATTCCGGTCTCCC", "DNA 2": "TGGTGGCTACGACGGGATT"}, "B21": {"name": "GCGCAUA (DNA:RNA)", "RNA": "B3 RNA with U26C, U28C, C29A, C30U", "DNA 1": "CAATCTGAATTCCGGTCTCCC", "DNA 2": "TGGTGGCTACGACGGGATT"}, "B22": {"name": "GCGGGCA (DNA:RNA)", "RNA": "B3 RNA with U26C, U28G, C29G", "DNA 1": "CAATCTGAATTCCGGTCTCCC", "DNA 2": "TGGTGGCTACGACGGGATT"}, "B23": {"name": "UGAUUCC (DNA:RNA)", "RNA": "B15 RNA with A28U, G29U, G30C, G31C", "DNA 1": "CAATCTGAATTCCGGTCTCCC", "DNA 2": "TGGTGGCTACGACGGGATT"}, "B24": {"name": "AGUGUCG (DNA:RNA)", "RNA": "B1 RNA with C26G, A30C, C31G", "DNA 1": "CAATCTGAATTCCGGTCTCCC", "DNA 2": "TGGTGGCTACGACGGGATT"}, "B25": {"name": "AGUAGUU (DNA:RNA)", "RNA": "B15 RNA with U25A, A27U, G30U, G31U", "DNA 1": "CAATCTGAATTCCGGTCTCCC", "DNA 2": "TGGTGGCTACGACGGGATT"}, "B26": {"name": "CAUGAGU (DNA:RNA)", "RNA": "B1 RNA with A25C, C26A, U29A, A30G, C31U", "DNA 1": "CAATCTGAATTCCGGTCTCCC", "DNA 2": "TGGTGGCTACGACGGGATT"}, "B27": {"name": "GCAGAAU (DNA:RNA)", "RNA": "B1 RNA with A25G, U27A, U29A, C31U", "DNA 1": "CAATCTGAATTCCGGTCTCCC", "DNA 2": "TGGTGGCTACGACGGGATT"}, "B28": {"name": "UUACGCA (DNA:RNA)", "RNA": "B3 RNA with G25U, G27A, U28C, C29G", "DNA 1": "CAATCTGAATTCCGGTCTCCC", "DNA 2": "TGGTGGCTACGACGGGATT"}, "B29": {"name": "AAAGGUG (DNA:RNA)", "RNA": "B15 RNA with U25A, G26A, A28G, G30U", "DNA 1": "CAATCTGAATTCCGGTCTCCC", "DNA 2": "TGGTGGCTACGACGGGATT"}, "B30": {"name": "CGUAUCU (DNA:RNA)", "RNA": "B1 RNA with A25C, C26G, G28A, A30C, C31U", "DNA 1": "CAATCTGAATTCCGGTCTCCC", "DNA 2": "TGGTGGCTACGACGGGATT"}, "B31": {"name": "CUCCAUA (DNA:RNA)", "RNA": "B3 RNA with G25C, G27C, U28C, C29A, C30U", "DNA 1": "CAATCTGAATTCCGGTCTCCC", "DNA 2": "TGGTGGCTACGACGGGATT"}}, "note": "Positions count from the first letter of the chain named. This is one part of the list."}
{"target": "T1, RBFOX1 RRM (Homo sapiens, UniProt Q9NWB1 109-208)", "T1 sequence": "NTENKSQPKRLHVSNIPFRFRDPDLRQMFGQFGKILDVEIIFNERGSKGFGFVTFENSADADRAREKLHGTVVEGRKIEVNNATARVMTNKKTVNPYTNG", "test": "EMSA; HiTS-Eq, 1 nM pool, 10 min; buffer printed only for the single-RNA assays: 10 mM Tris pH 7.5, 150 mM NaCl, 3.4 mM EDTA, 0.001% NP-40, 30 C", "conditions": "tags: His6 N-terminal (pET28a); label: 5' 32P", "in_short": "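Purified RbFox RRM, wild type or mutant, was incubated for 10 min in 50 µL with 1 nM of a 5′-radiolabelled RNA pool carrying 7 randomized nucleotides, whose flanks were annealed to DNA oligonucleotides, over a series of increasing protein concentrations. Unbound RNA was resolved on 8% native PAGE, cut out, reverse-transcribed, barcoded by PCR and sequenced on an Illumina HiSeq 2500. Relative association constants were derived from changes in read counts for each RNA species versus the control reaction and normalised to the cognate motif.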"}
{"binder": "B1", "binding signal": "0.00505 KA relative to UGCAUGU"}
{"binder": "B2", "binding signal": "0.0146 KA relative to UGCAUGU"}
{"binder": "B3", "binding signal": "0.00816 KA relative to UGCAUGU"}
{"binder": "B4", "binding signal": "0.00426 KA relative to UGCAUGU"}
{"binder": "B5", "binding signal": "0.003 KA relative to UGCAUGU"}
{"binder": "B6", "binding signal": "0.000632 KA relative to UGCAUGU"}
{"binder": "B7", "binding signal": "0.0132 KA relative to UGCAUGU"}
{"binder": "B8", "binding signal": "0.000576 KA relative to UGCAUGU"}
{"binder": "B9", "binding signal": "0.00769 KA relative to UGCAUGU"}
{"binder": "B10", "binding signal": "0.00455 KA relative to UGCAUGU"}
{"binder": "B11", "binding signal": "0.00113 KA relative to UGCAUGU"}
{"binder": "B12", "binding signal": "0.0327 KA relative to UGCAUGU"}
{"binder": "B13", "binding signal": "0.00183 KA relative to UGCAUGU"}
{"binder": "B14", "binding signal": "0.0153 KA relative to UGCAUGU"}
{"binder": "B15", "binding signal": "0.0101 KA relative to UGCAUGU"}
{"binder": "B16", "binding signal": "0.0114 KA relative to UGCAUGU"}
{"binder": "B17", "binding signal": "0.0092 KA relative to UGCAUGU"}
{"binder": "B18", "binding signal": "0.0151 KA relative to UGCAUGU"}
{"binder": "B19", "binding signal": "0.00148 KA relative to UGCAUGU"}
{"binder": "B20", "binding signal": "0.013 KA relative to UGCAUGU"}
{"binder": "B21", "binding signal": "0.0107 KA relative to UGCAUGU"}
{"binder": "B22", "binding signal": "0.0135 KA relative to UGCAUGU"}
{"binder": "B23", "binding signal": "0.0111 KA relative to UGCAUGU"}
{"binder": "B24", "binding signal": "0.0143 KA relative to UGCAUGU"}
{"binder": "B25", "binding signal": "0.00781 KA relative to UGCAUGU"}
{"binder": "B26", "binding signal": "0.0105 KA relative to UGCAUGU"}
{"binder": "B27", "binding signal": "0.0111 KA relative to UGCAUGU"}
{"binder": "B28", "binding signal": "0.0107 KA relative to UGCAUGU"}
{"binder": "B29", "binding signal": "0.00945 KA relative to UGCAUGU"}
{"binder": "B30", "binding signal": "0.00933 KA relative to UGCAUGU"}
{"binder": "B31", "binding signal": "0.0015 KA relative to UGCAUGU"}
